Measured values as given in PMC9249326 (2022).

Molecular target: huAb45
Test: BLI

huAb45, sequence (P01138 122-241): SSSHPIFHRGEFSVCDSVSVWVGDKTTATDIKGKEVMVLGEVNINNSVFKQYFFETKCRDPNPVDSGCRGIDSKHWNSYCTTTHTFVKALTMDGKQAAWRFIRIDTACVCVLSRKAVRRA

B1: 6xHis-tagged human NGF (nerve growth factor) (ligand)
chain: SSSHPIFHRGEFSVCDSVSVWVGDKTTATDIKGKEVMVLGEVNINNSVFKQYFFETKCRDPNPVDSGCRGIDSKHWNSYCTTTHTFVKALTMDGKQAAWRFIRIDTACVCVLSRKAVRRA
- Kd: < 1 pM
- koff: < 1e-07 s⁻¹
